# PubChem BioAssay AID624296 (National Center for Advancing Translational Sciences (NCATS), 2012)
# Among all 350,000 compounds or so, about 9,900 (2.8%) were called active. Inconclusive results, whose numbers are uncertain, are shown with a selection of clear calls. Calls follow the shape of the dose curve; as a rule, active = well fitted activation curve with a large enough effect; inconclusive = small, poorly fitted or top-dose-only effect; inactive = no such curve, though single readings can be large or run the other way. Potencies of inconclusive entries are left out as doubtful fits.
# Assay: A quantitative high throughput screen for small molecules that induce DNA re-replication in MCF 10a normal breast cells. Also: nearly all actives have a fitted effect of over 50% in size. As to activity, positive = re-replication: % of control where 0% means no effect.
# Details: MCF 10A DNA re-replication, Hoechst nuclear intensity, 48 h; activity, positive = re-replication: at 46.1 µM (top of the series)
# Potency is read from the fitted curve at half-maximal effect; tags tell the direction and shape of the fitted curve.
SMILES,Potency,"activity, positive = re-replication"
CCC(C)OC(=O)C1=C(C)O[C@]23OC(N)=C(C#N)[C@]12C(=O)c1ccccc13 (some centres not stated),inactive,
O=c1cc(/C=C/c2cccs2)[nH]c2ccccc12,"inconclusive [activator, single point]",
CC(C)c1cc(=O)n2[nH]c(SCc3ccccc3)nc2n1,"inconclusive [activator, partial curve, poor fit]",
CCN1CCN(C(=O)c2cc(COc3ccc4ncccc4c3)on2)CC1,inactive,
O=C(CC1NCCNC1=O)Nc1cc(Cl)cc(Cl)c1 (configuration not stated),"inconclusive [activator, partial curve, poor fit]",
CC1CC(C)C(=NNC(N)=O)C(C(O)CC2CCC(=O)NC2=O)C1 (configuration not stated),"inconclusive [activator, partial curve, poor fit]",
COC(=O)c1c(-c2ccc(OC)cc2)sc2ccc(OC)cc12,inactive,
O=C(/C=C/c1c(F)cccc1Cl)NCCCN1CCOCC1,inactive,
CN(C)C(=O)COC(=O)c1cccc(S(=O)(=O)N2CC3(C)CC2CC(C)(C)C3)c1 (configuration not stated),"inconclusive [activator, full curve, poor fit]",
O=C(c1cc2cc3ccc(Cl)cc3nc2o1)N1CCN(Cc2ccc3c(c2)OCO3)CC1,inactive,
COc1ccc(S(=O)(=O)NC2CC2)cc1Br,"inconclusive [activator, partial curve, poor fit]",
COCCCNCCOc1ccc(C(C)(C)c2ccccc2)cc1,"inconclusive [activator, full curve, poor fit]",
c1ccc(-c2cccc(-c3ccccn3)n2)nc1,"inconclusive [activator, full curve]",
CN(Cc1ccc2ccccc2c1)C(=O)c1ccc(C(F)(F)F)cc1,"inconclusive [activator, single point]",
C#CCNC(=O)C1=C[C@@H](c2cn(C(C)=O)c3ccccc23)C[C@@H](OCc2ccc(CO)cc2)O1,inactive,
Cc1ccc(C)c(OCCC(=O)Nc2ccc(S(=O)(=O)N3CCCC3)cc2)c1,inactive,
Nc1c(C(=O)OCC2CCCO2)c2nc3ccccc3nc2n1C1CCCC1 (configuration not stated),"inconclusive [activator, partial curve, poor fit]",
CC(C)c1cccc(OCCN2CCCC2)c1,"inconclusive [activator, partial curve, poor fit]",
O=C(Nc1ccc2snnc2c1)Nc1cccc2ccccc12,"inconclusive [activator, partial curve, poor fit]",
O=[N+]([O-])c1ccc(-c2cnc(SCc3ccccc3Cl)[nH]2)cc1,"inconclusive [activator, single point]",
COc1ccccc1C(=O)Nc1ccc2c(c1)CN(C(=O)CSC)CC2,active: 11.6 µM,
Cn1nc(C(C)(C)C)c([N+](=O)[O-])c1C(=O)N1CCOCC1,"inconclusive [activator, single point]",
CC(C)(C)c1cc[n+](C2=C([O-])c3ccccc3C(=O)/C2=N\S(=O)(=O)c2cccs2)cc1,"inconclusive [activator, single point]",

SMILES,Potency,"activity, positive = re-replication"
C=CCOc1cccc(/C=C2\C(=O)N(Cc3ccc(C)cc3)C(C)=C2C(=O)OC)c1,active: 16.4 µM,
CCCn1c(=N)n(CCOc2ccc(OC)cc2)c2ccccc21,"inconclusive [activator, single point]",
O=C(N/N=C/c1ccccc1Cl)c1[nH]c2ccc(Br)cc2c1-c1ccccc1,,inconclusive: 166% [activator]
CC(C)(C)C1CCC(=NNC(=O)C2COc3ccccc3O2)CC1 (configuration not stated),"inconclusive [activator, partial curve, poor fit]",
Cc1[nH]c(=O)[nH]c1C(=O)CCCCC(=O)OCC(=O)Nc1ccccn1,inactive,
CCOC(=O)[C@H]1[C@H]2COc3ccc(C)cc3[C@@H]2N2C(=O)c3ccc(F)cc3NC(=O)[C@@]12C,inactive,
COc1ccccc1N(C)S(=O)(=O)c1ccc(C(=O)NCc2ccccc2CN2CCCC2)cc1,"inconclusive [activator, single point]",
Cc1cccc(N(C(=O)CCC(=O)Nc2ccccn2)C(C(=O)NC(C)C)c2ccc(O)cc2)c1 (configuration not stated),inactive,
CC(C)CCC(C)NC(=O)CN1C(=O)NC(C)(c2ccc3ccccc3c2)C1=O (configuration not stated),"inconclusive [activator, partial curve, poor fit]",
O=C1c2cccc(OCC(=O)N3N=C(c4cccs4)CC3c3ccc(F)cc3)c2CCN1Cc1cccnc1 (configuration not stated),"inconclusive [activator, full curve]",
Cc1ccc(C(=O)C2=C(O)C(=O)N(Cc3ccco3)C2c2cccc(Br)c2)o1 (configuration not stated),"inconclusive [activator, partial curve, poor fit]",
COc1ccc(CCNC(=O)c2ccc(CNS(=O)(=O)c3cccc(Cl)c3)cc2)cc1OC,"inconclusive [activator, single point]",
COc1cccc(OC)c1OCCN1CCCC1,inactive,
c1ccc([C@H]2CNCCN2CCc2cccc3ccccc23)cc1,inactive,
CC(C)C[C@H](NC(=O)c1nc[nH]c1C(=O)N1CCc2ccccc2C1)C(=O)OCc1ccccc1,"inconclusive [activator, partial curve, poor fit]",
COc1ccccc1N(C(=O)c1cncc(Br)c1)c1nc(-c2ccc(C)cc2)cs1,"inconclusive [activator, single point]",
COc1cccc(C=Nc2cc(C(C)C)c(O)cc2C)c1O,"inconclusive [activator, single point]",
CCCCN(C)CCCNC(=O)c1cn(CC)c2ccc(S(=O)(=O)N3CCc4ccccc4C3)cc2c1=O,inactive,
CCOC(=O)c1c(NC(=O)CN2C(=O)NC3(CCCCC3C)C2=O)sc(C)c1C (configuration not stated),"inconclusive [activator, single point]",
COc1ccc(C(=O)C2CCCN(Cc3cccn3-c3ccccn3)C2)c(C)c1 (configuration not stated),"inconclusive [activator, single point]",
CN(C)CCCNC(=O)C[C@H]1C[C@H](C(=O)N2CCCCC2)[C@@]2(CCc3ccccc3)c3[nH]c4cc(CCC(=O)N(C)C)ccc4c3CCN2C1=O,"inconclusive [activator, full curve, poor fit]",
CCN(CC)S(=O)(=O)c1ccc(N2CCN(C)CC2)c(NC(=O)c2cc(=O)c3ccccc3o2)c1,inactive,
COc1ccc(OC)c(-c2csc(N(Cc3ccco3)C(=O)c3ccco3)n2)c1,"inconclusive [activator, single point]",

SMILES,Potency,"activity, positive = re-replication"
O=C(NCc1ccc(OC(F)(F)F)cc1)C1CC(c2c(Cl)cccc2Cl)=NO1 (configuration not stated),"inconclusive [activator, single point]",
Oc1cccc(/C=N/Nc2ncnc3c2ncn3Cc2ccccc2)c1,"inconclusive [activator, single point]",
S=C(NCc1ccc(Cl)cc1)Nc1ccccc1,inactive,
CN(C)S(=O)(=O)c1ccc(C(=O)Nc2nc(-c3cc4ccccc4o3)cs2)cc1,active: 4.61 µM,
COc1cc(-c2nc(-c3ccncc3)no2)cc(OC)c1OC,"inconclusive [activator, single point]",
CCS(=O)(=O)Nc1ccc(C2=NN(S(=O)(=O)c3ccc(F)cc3)C(c3ccco3)C2)cc1 (configuration not stated),"inconclusive [activator, partial curve, poor fit]",
Cc1ccc(-n2ncc3c(=O)[nH]c(SCC(=O)N4CCOCC4)nc32)cc1,active: 25.9 µM,
O=C1CCN(Cc2ccccc2)C=C1c1ccc(Cl)cc1,"inconclusive [activator, partial curve, poor fit]",
O=C(Nc1ccc2c(c1)N(S(=O)(=O)c1cccs1)CCC2)c1c(F)cccc1Cl,"inconclusive [activator, partial curve, poor fit]",
O=C1Nc2ccc(S(=O)(=O)N3CCCCCC3)c3cccc1c23,active: 20.6 µM,
O=C(/C=C/c1ccc(Cl)cc1)c1cccnc1,"inconclusive [activator, single point]",
Cn1cccc1/C=N/NC(=O)c1cc(-c2cccs2)nc2ccccc12,active: 5.8 µM,
COc1ccc(NC(=O)CN(C)C(=O)c2cc(-c3ccco3)nc3ccccc23)cc1,"inconclusive [activator, partial curve, poor fit]",
CC(C)N(c1ccccc1)c1ccc(NC(=S)NCCN(C)C)cc1,"inconclusive [activator, single point]",
CCOc1cc(/C=C2\N=C(SC(C)C(N)=O)N(c3ccc(OC(F)F)cc3)C2=O)ccc1O (configuration not stated),active: 10.3 µM,
CN1CCN(c2nc(-c3ccccc3)c3cc(Cl)ccc3n2)CC1,active: 3.98 µM,
COc1ccc(NC(=O)CNc2cc(C)ccc2C)cc1S(=O)(=O)N1CCOCC1,inactive,
O=[N+]([O-])c1ccc(NC(=S)NCCc2ccccc2)cc1,"inconclusive [activator, single point]",
CC1=NN(c2ccc(Br)cc2)C(=O)/C1=C/c1ccc(-c2ccccc2C(=O)O)o1,active: 23.1 µM,
O=C(NNC(=O)c1cc(-c2ccc(Cl)c(Cl)c2)nc2ccccc12)Nc1ccccc1,active: 20.6 µM,
O=C(c1ccc([N+](=O)[O-])o1)N1CCc2ccccc21,active: 9.2 µM,
